# Data published in publication PMC12136788.
# Some of the results follow.
# B1: chr19:32875924:32879378:-|three_prime_utr|ENSG00000121289|control|control|control (ssRNA)
# RNA: GGGAGUUCUACAGUCCGACGAUCACCUGCUGGACGGCUGCGAUGUCUGCUCCUAUGACCUGAAGUCUCAUGCCCCCACCUGCUAGAAUCUGCGGGAGCCCGUGGUGUAGCCUCCUCUGGCCUGAAAGGUCUGCCUCACACAGGCAACAGAGGAUUGAGCAUCA
# B2: chrX:47636291:47636398:-|3pUTR|ENSG00000126767|unk|total|mutant (ssRNA)
# RNA: GGGAGUUCUACAGUCCGACGAUCGCCUGCCCUUGGGGAGAUGAGGGAGCCCUGUCUGCGUUUUUGGAUGUGAGCCGAAGAGUCCGUUUGUUUUGUUUUAUUAUUCCUGGCCAUACUCAGGGGUCCAGGAAGAAUUUGUACCAUCAACAGAGGAUUGAGCAUCA
# B3: chr22:38736040:38736148:-|3pUTR|ENSG00000100242|msi1|FALSE|unique (ssRNA)
# RNA: GGGAGUUCUACAGUCCGACGAUCCCCCAUGCAGAUGAAAAGGACGGGCAGGGUCUCCUGAGCAGCAGGUGGCUCGAGGCGGUUAGCAGGCUCCAGCAGCUCCCUUCUUCCUUCCCUCUGUGCCCGUGGCGUCUGCUUCCCAUCCAACAGAGGAUUGAGCAUCA
# B4: chr12:62383855:62383964:+|CDS|ENSG00000135655|unk|FALSE|unique (ssRNA)
# RNA: GGGAGUUCUACAGUCCGACGAUCGGUAGGACGUUUUGCACCUCAGUUCUCUGGAUAUCAGCAGCAAGACUGUCAAGAACUGUUAGCUUUCCUAUUAGAUGGAUUACAUGAGGAUUUGAAUAGAAUUAGGAAAAAACCAUAUAUCAACAGAGGAUUGAGCAUCA
# B5: chr1:151291320:151291421:+|3pUTR|ENSG00000143373|unk|total|mutant (ssRNA)
# RNA: GGGAGUUCUACAGUCCGACGAUCAAUAUUUUGUUAAUUCCUGUCUCUCCAACCUGAAGAAGAAGAGCAUUUGAGGAUUAUUCCCGUUAUUUGCAACCUCCCUUUGGGUUUGGCCCUGGAGUCCCCGCCGAGUGGACCCUCCAUCAACAGAGGAUUGAGCAUCA
# B6: chr16:75660256:75661249:-|CDS|ENSG00000284484|control|control|control (ssRNA)
# RNA: GGGAGUUCUACAGUCCGACGAUCCUGGGGCAAGAUAUGCAGGUAGGGGCUUCAAGCAACUCAGGACUCAAAUGCAGCAGUUUUAGGUUGAGGGGUCUACACGGGCCUGCCACAGGAACCCAAGGAUGCAGCUUUGCAAAGUAUCAACAGAGGAUUGAGCAUCA
# B7: chr11:6768009:6768957:-|CDS|ENSG00000188124|control|control|control (ssRNA)
# RNA: GGGAGUUCUACAGUCCGACGAUCCGUGACAGGUGUGACUUUCCUCUUGCUCCCCAUUUCUGCCAUUGUGGCCUCCUACACACUAGUCCUAUUCACUGUGCUUCGUAUGCCAUCAAAUGAGGGGAGGAAGAAAGCCCUUGUCACCAACAGAGGAUUGAGCAUCA
# B8: chr10:133362484:133362867:-|three_prime_utr|ENSG00000127884|control|control|control (ssRNA)
# RNA: GGGAGUUCUACAGUCCGACGAUCAACCAGCUGCCCCUGCUUCACACCUCUGCUUGGAGAGGACAAGUGCAGCCUGUCAGUUUUAGAAGCAAGUAAAUCAUCCUCUUUUCAAGAGCAGUGUCCGUGGUGUGCAGUUCCUCUCCACAACAGAGGAUUGAGCAUCA
# B9: chr3:149738563:149738664:-|3pUTR|ENSG00000114744|unk|total|mutant (ssRNA)
# RNA: GGGAGUUCUACAGUCCGACGAUCUGGAUUAUUAUGGGUCCUUGAUAAAUUCUCAAAGCCUUUUUUUUUGUUCAUCUCUAAAACCGGAAUACCGGAUUACCUACCACAUUGACUCGUAAGGACUAUAUGAGACCAUGUAUACCGCAACAGAGGAUUGAGCAUCA
# B10: chr5:136063637:136063821:+|3pUTR|ENSG00000120708|msi1|total|mutant (ssRNA)
# RNA: GGGAGUUCUACAGUCCGACGAUCUGUCAAAUGUGUCUCACAUCUACACGUGGCUUGGAGGCUUUUAUGGGGCCCUGUCCAGGCCGAAAAGAAAUGGUAUGCCGAGCUCCGAUUUCCCUAUUGUGACAGAGCCAUGGUGUGUUUCAACAGAGGAUUGAGCAUCA
# B11: chr10:110135209:110135310:+|3pUTR|ENSG00000148700|msi1|total|mutant (ssRNA)
# RNA: GGGAGUUCUACAGUCCGACGAUCCUCUCUAUUGGAAGAUUUUUUUAAUGUUCUACAUCAUUUAUGUUGUAUUACAAUGUAUGCCGAAACCGUAACCUGUGAACUAUGCUUUUCCAUAACUUUUUAAAAAUAUAUAUAUCUAAACAACAGAGGAUUGAGCAUCA
# B12: ENSG00000198589:be:win_3951|CDS|ENSG00000198589|bound_else_gene|NA|bound_elsewhere_windowed (ssRNA)
# RNA: GGGAGUUCUACAGUCCGACGAUCUUUGCUCACUGAUCUAUUAUUUUCAAUAGAAACAGAUAUACAGAUGUGGAGAAGCCAUUCAACAAAGACAGUUAUGGACUUCGUGAAUAGCAGUGAUAAUGUCAUCUUUGUACACAACACCAACAGAGGAUUGAGCAUCA
# B13: ENSG00000107863:be:win_1151|CDS|ENSG00000107863|bound_else_gene|NA|bound_elsewhere_windowed (ssRNA)
# RNA: GGGAGUUCUACAGUCCGACGAUCUAGACUGGAAAAACUAUAAAACUUACAAAGAGUAUAUUGAUAACAGACGAUUGCACAUAGGUUGUCGGACAAUACAAGAAAGAUUAGAUAGUUUAAGAGCAGCAUCUCAAAGCACGACAGCAACAGAGGAUUGAGCAUCA
# B14: chr6:43013266:43013367:-|CDS|ENSG00000124733|msi1|total|mutant (ssRNA)
# RNA: GGGAGUUCUACAGUCCGACGAUCAUCCCUGUCCUACCGCCUCCCUGUUCUUGCAGCCCCUGCCCGGAUGGCAACAGCCGUUCCCGGAGGAGACACCAUGGGCCCUGAGCGUAUCUUCCCCAAUCAGACUGAGGAACUGGGACACAACAGAGGAUUGAGCAUCA
# B15: chr22:36281679:36281692:-|3pUTR|ENSG00000100345|msi1_unk|total|mutant (ssRNA)
# RNA: GGGAGUUCUACAGUCCGACGAUCUCUUGUGUCUACUCCCGGACUGGGCCCGAGGGUGGUUUACCUGCACCGUUGACUCAGUACCGUUUAAAAAUCUGCCACCUGCACAGGUAUUUUUGAAAGCAAAAUAAGGUUUUCUUUUUUCAACAGAGGAUUGAGCAUCA
# B16: chr8:9779869:9779970:+|3pUTR|ENSG00000173273|msi1|total|mutant (ssRNA)
# RNA: GGGAGUUCUACAGUCCGACGAUCGGAAUUUCCCGCUUUUCAAGCAGCAUAAGCCGAAUCAACAUCCGGAUGUUUUCAUGAAACCGCAUCCUUAUACUUCUUUGAGCUUGAUGUCCGUGGCCCGACUGAUUUCCCUUUGCUCUCCAACAGAGGAUUGAGCAUCA
# B17: chr1:54043363:54043464:-|CDS|ENSG00000116209|msi1|total|mutant (ssRNA)
# RNA: GGGAGUUCUACAGUCCGACGAUCCGCACAGAGCUUCAUAACCUCUUCAUGGACUUUUUAUCUUCAAGCCGAUGACGGAAAAACCGUUAUAUUCCAGGUGACAACUGAGCUUCAUGGAUUCAUCUAAAUACUAACAACAGUAAACAACAGAGGAUUGAGCAUCA
# B18: ENSG00000181610:stop:overlap|stop_codon|ENSG00000181610|stop_codon|NA|stop_codon (ssRNA)
# RNA: GGGAGUUCUACAGUCCGACGAUCGACGAGUAGGCGAAGCAAGGACUGUGAGUAUUUCAUUGUUAAAAUUGUUACUGGGUUUAUAGUUGUCCCUCAGUAUGCACAGGGGAUUGGUGCUAGGGCCCCUGCAGAUACCAAUAUUCACAACAGAGGAUUGAGCAUCA
# B19: chr3:100728682:100728848:+|CDS|ENSG00000114354|unk|total|mutant (ssRNA)
# RNA: GGGAGUUCUACAGUCCGACGAUCUAAUGGCCAGCCAAGACCCCUUGAAUCAAGUCAGGUGAAAUAUCUCCGUCGAGAACUGACCGAACUUCGAAAUAAAGUGAAUCGUUUAUUGGACCGCUUGGAACCACCUGGAGAACCAGGCAACAGAGGAUUGAGCAUCA
# B20: chr2:48379045:48379146:+|3pUTR|ENSG00000170802|unk|FALSE|unique (ssRNA)
# RNA: GGGAGUUCUACAGUCCGACGAUCCCUUAUCCUCUUUUCUGAUGUAGCAUAAAAAUUGUCCCGGUUUGAGUUAUAACUGCCAGUAGAUGACCAGUCACAAGUGAACCACUUCUCAGUUGCCAAUCUUUGCUCAUAUUAAAAACACAACAGAGGAUUGAGCAUCA
# B21: chr1:17067933:17068034:-|3pUTR|ENSG00000117115|msi1|total|mutant (ssRNA)
# RNA: GGGAGUUCUACAGUCCGACGAUCACAUAAGGACCCUGGCCUACCCUCCAGCCCAACAGCCAGUUCUGGGUCAGCUGCCAACUCCGGGGUGGUUUGAUUAUCCCAUUGAAAUUCACCAGUGCCUUUGCCAAAGACCCUCUCAUUCAACAGAGGAUUGAGCAUCA
# B22: chr12:50222030:50222167:-|CDS|ENSG00000050405|unk|total|mutant (ssRNA)
# RNA: GGGAGUUCUACAGUCCGACGAUCAUCCAGGCAUGAAGCCGAAAAAUCAGAAAUCAGUGAAAACACAGAUGCUUCGGGCAAAACCGAGAAAUAUAAUGUUCCGCUGAACAGGCUUAAGAUGAUGUUUGAGAAAGGUGAACCAACCAACAGAGGAUUGAGCAUCA
# Molecular target: MSI1 full-length (mouse, UniProt Q61474 1-362)
# Assay: nsRBNS (natural sequence RNA bind-n-seq); RBNS binding buffer (assumed for nsRBNS): 25 mM Tris pH 7.5, 150 mM KCl, 3 mM MgCl2, 0.01% Triton X-100, 500 ug/ml BSA, 20 U/ml SUPERase-In, 4 C; UNK is unkempt and MSI1 is Musashi-1; names of the RNAs are library labels; protein concentration not given here; high values mean tight binding
# UniProt Q61474, sequence (Q61474 whole entry): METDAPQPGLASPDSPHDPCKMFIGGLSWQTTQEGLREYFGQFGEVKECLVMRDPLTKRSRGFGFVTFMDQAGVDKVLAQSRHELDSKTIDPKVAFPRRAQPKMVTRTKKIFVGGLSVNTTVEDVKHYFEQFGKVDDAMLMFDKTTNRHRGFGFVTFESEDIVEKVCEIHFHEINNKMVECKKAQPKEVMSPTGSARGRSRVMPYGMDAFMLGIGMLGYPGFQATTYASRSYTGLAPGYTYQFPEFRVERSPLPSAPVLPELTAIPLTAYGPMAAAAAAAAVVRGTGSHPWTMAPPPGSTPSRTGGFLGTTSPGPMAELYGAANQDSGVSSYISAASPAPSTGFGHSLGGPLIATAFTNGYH
row,Binder,binding signal [enrichment R]
1,B1,0.51
2,B2,0.639
3,B3,0.677
4,B4,11.4
5,B5,0.403
6,B6,0.591
7,B7,0.612
8,B8,1.36
9,B9,0.37
10,B10,0.371
11,B11,7.3
12,B12,0.371
13,B13,9.98
14,B14,0.598
15,B15,0.385
16,B16,0.317
17,B17,0.255
18,B18,1.99
19,B19,0.264
20,B20,0.775
21,B21,0.449
22,B22,0.258
